Laboratory results from PubChem BioAssay AID1347073 (National Center for Advancing Translational Sciences (NCATS), 2019).
Screen size: about 45,000 compounds; about 200 (0.44%) were called active. Inconclusive results (about 7%) are left out. The call rests on the fitted dose curve; in most records, active means well fitted activation curve with a large enough effect; inconclusive means small, poorly fitted or top-dose-only effect; inactive means no such curve, though single readings can be large or run the other way. Some of the results follow.

Assay: qHTS of TDP-43 Inhibitors: NCGC Sytravon Library Screen; further: 0% is about no effect; nearly all actives have a fitted effect of over 55% in size
Conditions: yeast TDP-43 toxicity rescue, BacTiter-Glo growth, 24 h; series mostly up to 46.1 µM; growth rescue (activation): at the top concentration
Summary of the method: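 TDP-43-expressing yeast, pregrown in raffinose, seeded at OD600 0.02 in galactose medium with compound for 24 hr at 30 deg C. Growth read by BacTiter-Glo luminescence, so rescue of toxicity appears as activation.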

Row | Structure (SMILES) | growth rescue (activation)
1 | COc1cccc(NC(=O)Nc2nnc([C@@H]3C[C@H](O)[C@@H](CO)O3)s2)c1 | inactive: 7.95%
2 | Cn1c(SCC(=O)C(C)(C)C)nnc1-c1ccc(F)cc1 | inactive: -15.3%
3 | COc1ccc(NC(=S)N2CCCN(Cc3cc(C)ccc3C)C2)cc1 | inactive: 3.43%
4 | COc1ccc2nc(SCC(=O)Nc3cc(C)on3)c(C#N)cc2c1 | inactive: -7.46%
5 | O=C(Nc1cccc(O)c1)c1ccc(NC(=O)C2CCCO2)cc1 (stereo not drawn) | inactive: -30.4%
6 | Cc1cccc(N(C(=O)c2csnn2)C(C(=O)NC(C)(C)C)c2cccnc2)c1 (stereo not drawn) | inactive: 1.96%
7 | CCCn1c(SCC(=O)Nc2ccccc2Cl)nc(O)cc1=O | inactive: -19.4%
8 | O=C(NC1CCCCC1)c1cc(-c2ccc(Cl)cc2)on1 | inactive: 9.25%
9 | CN(Cc1cc2ccccc2[nH]c1=O)C(=O)c1cccs1 | inactive: -0.957%
10 | Cc1cc(C)cc(NC(=O)CSc2nncn2-c2ccccn2)c1 | inactive: -8.72%
11 | COc1ccccc1CC(NC(C)=O)C(=O)NC1CCN(S(=O)(=O)c2ccc(NC(C)=O)cc2)CC1 (stereo not drawn) | inactive: 7.31%
12 | Cc1ccccc1Cn1c(C)c(C(=O)NCC(C)C)sc1=O | inactive: 13.7%
13 | COc1ccc(S(=O)(=O)N2CN(CCc3ccc(OC)c(OC)c3)c3nc4ccccc4nc32)cc1 | inactive: 7.29%
14 | COc1ccc(-c2csc(N(CCCN(C)C)C(=O)c3ccc(C)cc3)n2)cc1 | inactive: -0.0496%
15 | CC1(C(=O)NS(=O)(=O)c2ccccc2Cl)CCN1C(=O)C1CC1 (stereo not drawn) | inactive: 10.2%
16 | O=C(Cn1ncc(Cl)c(Cl)c1=O)N1CCOCC1 | inactive: 7.65%
17 | O/N=C1/CCSc2ccccc21 | inactive: 22.8%
18 | Cc1ccc(OCCOCCOc2cccc3cccnc23)c(Br)c1 | inactive: -8.46%
19 | CC(C)Cc1cc(C(=O)N2CCCC(CCC(=O)N(C)CCc3ccccn3)C2)no1 (stereo not drawn) | inactive: 8.04%
20 | CCC(C(=O)NCCC1=CCCCC1)c1ccccc1 (stereo not drawn) | inactive: 12.3%
21 | CC(C)c1ccc(C2Sc3ccccc3NC3=C2C(=O)c2ccccc23)cc1 (stereo not drawn) | inactive: -3.23%
22 | CC(C)C(=O)N1CCN(c2ccccc2NC(=S)NC(=O)c2cccs2)CC1 | inactive: -13.4%

Row | Structure (SMILES) | growth rescue (activation)
23 | CCSc1nnc(NC(=O)c2ccc3ccccc3n2)s1 | inactive: 24.9%
24 | CN(C(=S)Nc1ccc(SC(F)F)cc1)c1ccc(O)cc1 | inactive: 14.5%
25 | CCOc1ccc(-n2c(SCC(=O)N3CCC(C(=O)O)CC3)nc3ccccc3c2=O)cc1 | inactive: 4.98%
26 | CC(C)(C)C(=O)N1CCN(c2nc3ccccc3o2)CC1 | inactive: 25%
27 | CCCc1nnc(SCC(=O)Nc2cccc(C(F)(F)F)c2)o1 | inactive: 24.6%
28 | Cc1ccc(NC(=O)CSc2nnc(-c3ccoc3C)n2CCCN(C)C)cc1Cl | inactive: 7.52%
29 | Cc1[nH]c2ccc(F)cc2c1CCN(Cc1cccnc1)C(=S)NC(C)(C)C | inactive: -2.29%
30 | COc1cc(C=NNC(=O)c2ccccc2-n2cccc2)ccc1O | inactive: -7.42%
31 | Clc1ccsc1-c1ccnc(-n2cccc2)n1 | inactive: -5.39%
32 | C[C@]12CC[C@H](O)CC1=CCC1C2CC[C@@]2(C)C1CC[C@@H]2NC(=O)[C@@H](N)Cc1ccccc1 (stereo partly drawn) | inactive: -1.32%
33 | COC(=O)c1cccc(CN2C(=O)C(C)Sc3cc(Cl)ccc32)c1 (stereo not drawn) | inactive: 10.6%
34 | O=C(c1ccc(Oc2ccccc2)cc1)C1CCCN(C(=O)c2cnccn2)C1 (stereo not drawn) | inactive: -3.73%
35 | COc1cccc(NC(=O)CC2C(=O)NC3CCCCC3N2C(=O)c2ccccc2)c1 (stereo not drawn) | inactive: 9.1%
36 | Cn1c2ccccc2c2ncn(Cc3ccc(F)cc3)c(=O)c21 | inactive: 19.3%
37 | Cc1ccc2[nH]c3c(c2c1)CCCC3NC(=O)CCl (stereo not drawn) | inactive: 22.3%
38 | CC1=NN(c2cccc(Cl)c2)C(=O)C12CC(C)=C(C)CS2 (stereo not drawn) | inactive: 17%
39 | CCCNC(=O)C1(C)CCN(Cc2cc(C)n(C)n2)C1 (stereo not drawn) | inactive: 6.15%
40 | COc1ccc(N2CCN(C(=O)c3ccc(S(=O)(=O)N4CCCCCC4)cc3)CC2)cc1 | inactive: 10.2%
41 | COc1ccc(/C=C/C(=O)OCC(=O)N2CC(=O)Nc3ccccc32)cc1S(=O)(=O)N1CCOCC1 | inactive: 6.36%
42 | CCOc1ccccc1-c1nnc(CS(=O)(=O)c2ccccc2)o1 | inactive: 2.02%
43 | O=C(Cn1cc(C(=O)C2CC2)c2ccccc21)Nc1ccc(F)cc1 | inactive: 12.6%
44 | Cc1ccc(CN2CCN(Cc3cnc(C)[nH]3)CC2CCO)cc1 (stereo not drawn) | inactive: -13.3%

Row | Structure (SMILES) | growth rescue (activation)
45 | COc1ccc(C(CNS(=O)(=O)c2ccc(NC(C)=O)c(OC)c2)N2CCCC2)cc1 (stereo not drawn) | inactive: 15.2%
46 | COc1ccc(CC(NC(C)=O)C(=O)NC2CCN(C(=O)C3CCCCC3)CC2)c(OC)c1 (stereo not drawn) | inactive: -10.6%
47 | COc1ccc(NC(=O)N2CCCC(CCC(=O)N(C)CCc3ccccn3)C2)cc1 (stereo not drawn) | inactive: -1.27%
48 | Cc1cnc(C(=O)OCC(=O)Nc2cccc(S(=O)(=O)N3CCCCC3)c2)cn1 | inactive: -1.48%
49 | O=C(Nc1ccccc1C(=O)O)C1=NN=CC1 | inactive: 4.13%
50 | COc1ccc(C)cc1S(=O)(=O)N1CCN(C(=O)c2ncoc2-c2ccccc2C)CC1 | inactive: -1.48%
51 | COc1cccc(C(=O)Nc2ccc(S(=O)(=O)N3CCN(C)CC3)cc2)c1 | inactive: 9.16%
52 | COc1ccc(CCNC(=O)COC(=O)c2ccc(S(=O)(=O)N3CCCC3)cc2)cc1OC | inactive: -16.8%
53 | Cn1nnnc1SCC(=O)NC1CCCC1 | inactive: 5.5%
54 | CS(=O)(=O)c1ccc(C(=O)Nc2ccc(N3CCCC3)cc2)c(Cl)c1 | inactive: 4.83%
55 | COc1cccc(/C=C/C(=O)OCC(=O)NCc2ccco2)c1OC | inactive: 8.43%
56 | COc1ccc(CNc2cc(NCCCO)c([N+](=O)[O-])c3nonc23)cc1 | inactive: 2.18%
57 | CN(Cc1cccc(F)c1)CC(O)COCc1ccccc1Cl (stereo not drawn) | inactive: -7.59%
58 | CC(=C/c1ccccc1)/C=N/NC(=O)c1nnn(-c2nonc2N)c1CN1CCC(C)CC1 | inactive: -2.22%
59 | COC(=O)c1ccc2c(=O)n(CC3CCCO3)c(SCC(=O)NCCc3ccc(S(N)(=O)=O)cc3)nc2c1 (stereo not drawn) | inactive: 3.73%
60 | OC[C@@H]1CN(Cc2ccc(Cl)cc2)C[C@H](n2cnc3c(NCc4ccncc4)ncnc32)O1 | inactive: 5.47%
61 | O=C(Nc1ccc(S(=O)(=O)Nc2ccccn2)cc1)c1cccc(Br)c1 | inactive: 11.7%
62 | Cc1ccc(C)n1-c1nnc(N2CCC(C(=O)NCc3ccc(F)cc3)CC2)s1 | inactive: -0.258%
63 | Cc1ccc(C(=O)NC(=S)Nc2ccc(-c3cc4ccccc4oc3=O)cc2)c(C)c1 | inactive: -0.471%
64 | Cn1c(=O)c2cc(S(=O)(=O)Nc3cc(C(=O)O)cc(C(=O)O)c3)ccc2n(C)c1=O | inactive: 1.44%
65 | Cc1cc(O)c2/c(=N\N)c(-c3csc(C)n3)coc2c1 | inactive: 2.53%
66 | Cc1ccc(N(C(=O)c2ccco2)C2C=CS(=O)(=O)C2)cc1 (stereo not drawn) | inactive: -2.37%

Row | Structure (SMILES) | growth rescue (activation)
67 | Cc1cc(NC(=O)CCC(=O)N(c2ccc(C)c(F)c2)C(C(=O)NC2CCCC2)c2ccco2)no1 (stereo not drawn) | inactive: -0.393%
68 | C=C(C)Cn1c2ccc(NC(=O)CCc3cccc(Cl)c3)cc2c(=O)n1C | inactive: 12.9%
69 | CCCCCOCC(O)CCC(=O)NN (stereo not drawn) | inactive: -7.76%
70 | O=C(CC1CC2CCC1C2)NCCc1ccc(Cl)cc1 (stereo not drawn) | inactive: 30.3%
71 | O=C(CSc1ccccc1)NCc1ccccn1 | inactive: -4.9%
72 | CCCn1c(S(=O)(=O)O)nc2ccccc21 | inactive: -13%
73 | Cc1ccc2c(c1)c1c3n2CCN(CC(O)CNC(C)C)C3CCC1 (stereo not drawn) | inactive: -0.234%
74 | COc1cc2cc(-c3ccc(O)cc3O)nc(C)c2cc1OC | inactive: 10.8%
75 | Cc1ccc(Cl)cc1NC(=O)CN1CCN(S(=O)(=O)N2CCOCC2)CC1 | inactive: 12.2%
76 | Cc1ccc(NCc2ccc(O)c3ncccc23)cc1 | inactive: 12%
77 | Cc1cnc(CNC(=O)c2ccc(OC3CCN(C(=O)C4CC4)CC3)cc2)cn1 | inactive: 0.509%
78 | COc1ccc(NC(=O)CCCNC(=O)Cn2cnc3sc(C)c(C)c3c2=O)cc1Cl | inactive: -4.92%
79 | Cc1ccc(-c2csc(NC(=S)NC(=O)c3cccs3)n2)cc1 | inactive: 6.88%
80 | c1ccc(-c2noc(CC3CCCCC3)n2)cc1 | inactive: 6.13%
81 | C=CCc1cc(/C=C2/NC(=O)N(CC(=O)OC)C2=O)cc(OC)c1O | inactive: -0.873%
82 | O=C(CSc1nnnn1-c1cccc(F)c1)NC1CC1 | inactive: -28.2%
83 | O=C(O)C(NS(=O)(=O)c1ccc(F)cc1)c1ccccc1 (stereo not drawn) | inactive: 5.4%
84 | CCOCCCn1c(SCC(=O)NCc2ccc3c(c2)OCO3)nc2ccccc2c1=O | inactive: 7.4%
85 | Cc1ccc(SCC(=O)NCCCc2ccccc2)cc1 | inactive: 29.8%
86 | Cc1ccccc1C(=O)NC(=S)Nc1ccccc1C(=O)O | inactive: -10.5%
87 | O=C(CSc1nc2scc(-c3ccccc3)c2c(=O)[nH]1)N1CCCCC1 | inactive: -2.15%
88 | O=C(N/N=C/c1ccccc1O)C1CC(=O)N(c2ccc(F)cc2)C1 (stereo not drawn) | inactive: 6.85%

Row | Structure (SMILES) | growth rescue (activation)
89 | COCCNC(=O)C1(C)CCN(C(=O)c2cc(-c3ccccc3)cs2)C1 (stereo not drawn) | inactive: 3.77%
90 | Cc1cc(C)n2nc(SCC(=O)N3CC(C)CC(C)C3)nc2n1 (stereo not drawn) | inactive: 14.8%
91 | O=S(=O)(Nc1cccc2ccccc12)c1ccccc1F | inactive: -2.9%
92 | CC(c1nccs1)N(C)c1nc2nonc2nc1N(C)C (stereo not drawn) | inactive: 7.73%
93 | COc1ccc(Cc2nnc(-c3ccccc3)o2)cc1 | inactive: 23.3%
94 | CCOC(=O)c1ccc(N(C(=O)CNC(=O)c2ccco2)C(C(=O)NCC2CCCO2)c2ccc(OC)c(OC)c2)cc1 (stereo not drawn) | inactive: 2.38%
95 | Cc1cccc(C)c1NC(=O)CCCSc1nc2ccccc2s1 | inactive: 2.03%
96 | COc1cc(C2NC(=S)NC(c3ccccc3)=C2C(C)=O)ccc1O (stereo not drawn) | inactive: -7.19%
97 | O=C(Nc1cccc(C(F)(F)F)c1)C(=O)N1CCCCC1 | inactive: 3.86%
98 | CN1C(=O)Cc2cc(S(=O)(=O)NCc3c(F)cccc3Cl)ccc21 | inactive: 10.8%
99 | COCCNc1nnc(SCC(=O)NNC(=O)c2ccccc2)s1 | inactive: 4.58%
100 | Cc1ccc(C([O-])=C(C(=S)NCc2ccccc2)[n+]2cccc(CO)c2)cc1[N+](=O)[O-] | inactive: 9.18%
101 | O=C(O)c1cc(Cl)ccc1OS(=O)(=O)c1ccc(Cl)s1 | inactive: 1.06%
102 | Cn1c(SCC(=O)c2ccc3c(c2)NC(=O)CO3)nc2ccccc21 | inactive: 9.7%
103 | CC(C)CC(=O)Nc1ccc(Cc2ccncc2)cc1 | inactive: -7.3%
104 | S=c1[nH]nc(CCc2ccccc2)n1-c1ccc(Cl)cc1 | inactive: 19.3%
105 | S=C(NCC(c1cccnc1)N1CCOCC1)NC1CCCCC1 (stereo not drawn) | inactive: 5.22%
106 | CCNc1ccc(C(=O)N/N=C/c2c(C)nn(-c3ccccc3)c2N2CCCC2)cc1[N+](=O)[O-] | inactive: 6.23%
107 | CC(=O)c1ccc(OCc2nnn(CC(=O)NS(=O)(=O)Cc3ccccc3)c2-c2ccccc2)cc1 | inactive: -1.15%
108 | COc1ccc(S(=O)(=O)NCCOc2cccc3cccnc23)cc1OC | inactive: 8.88%
